Measured values: the supplement of paper PMC3334620
The full ranking holds about 33,000 sequences; the median of “E-score (-0.5 to 0.5)” is about -0.041, and the highest 2% start at about 0.37. Some of the results follow.

Molecular target: T1, Ecm22 (UniProt Q05958)
T1 sequence: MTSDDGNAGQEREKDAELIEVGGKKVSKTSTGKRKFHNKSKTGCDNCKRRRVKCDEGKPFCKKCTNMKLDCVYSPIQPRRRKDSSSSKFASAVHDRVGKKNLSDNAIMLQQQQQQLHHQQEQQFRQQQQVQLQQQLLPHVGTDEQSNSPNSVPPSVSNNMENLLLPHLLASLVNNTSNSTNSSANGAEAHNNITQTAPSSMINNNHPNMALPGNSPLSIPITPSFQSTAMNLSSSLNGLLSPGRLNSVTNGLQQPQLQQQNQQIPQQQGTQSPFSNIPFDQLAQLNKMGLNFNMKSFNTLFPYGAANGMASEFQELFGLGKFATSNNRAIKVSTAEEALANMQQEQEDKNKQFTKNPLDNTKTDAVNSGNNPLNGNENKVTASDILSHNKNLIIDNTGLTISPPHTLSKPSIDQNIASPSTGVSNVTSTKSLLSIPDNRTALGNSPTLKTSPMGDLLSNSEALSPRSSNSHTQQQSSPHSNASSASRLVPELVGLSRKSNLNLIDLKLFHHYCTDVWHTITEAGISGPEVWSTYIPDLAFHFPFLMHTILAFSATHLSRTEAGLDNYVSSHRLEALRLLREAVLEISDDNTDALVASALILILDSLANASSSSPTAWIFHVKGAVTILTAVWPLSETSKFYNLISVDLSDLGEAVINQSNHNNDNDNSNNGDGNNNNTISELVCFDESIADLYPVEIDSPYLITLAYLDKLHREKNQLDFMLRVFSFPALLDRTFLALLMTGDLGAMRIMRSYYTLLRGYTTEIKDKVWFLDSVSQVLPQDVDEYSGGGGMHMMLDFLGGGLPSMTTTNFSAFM
Assay: PBM E-score (8-mer binding enrichment) (E-score (-0.5 to 0.5)); higher = stronger / more preferred TF binding; most listed sequences are background and not binding sites
Conditions: protein concentration: 200 nM; construct: GST-full length
Method: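 Universal 'all 10-mer' protein binding microarrays (Agilent AMADID 015681) probed with GST-tagged S. cerevisiae TFs (full-length or DBD) made by in vitro transcription/translation (PURExpress), about 100-200 nM. Bound TF was detected with fluorescent anti-GST. Each ungapped 8-mer (which stands for itself and its reverse complement) is scored by the PBM enrichment score (E-score), a modified Wilcoxon-Mann-Whitney statistic from -0.5 to +0.5, computed with the Universal PBM Analysis Suite. Scale: above 0.35 generally sequence-specific binding.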

Row | Sequence | PBM E-score
1 | ACTTGGGG | -0.237
2 | AATGCCCA | -0.278
3 | GCCCATTA | 0.0743
4 | ATCTCGGC | 0.0673
5 | GACAAACC | -0.0829
6 | CAAAAAAC | -0.0428
7 | ACAATAAG | -0.058
8 | CGTTCCAG | 0.418
9 | TACAGAGA | -0.076
10 | ACGCCCCA | 0.128
11 | CTTCTTGC | 0.0469
12 | GGGAAGCA | -0.151
13 | ACACTGGC | -0.0328
14 | CGCCAGCC | 0.00328
15 | CGGCGGAC | -0.00158
16 | CCTTCTAC | -0.216
17 | AAGACAAT | -0.15
18 | AATGTACG | 0.331
19 | AGTATAGA | 0.16
20 | ACAGTTCC | -0.0566
21 | CGCGGCCG | 0.0345
22 | GTGCTTCA | -0.049
23 | CGTAGTGC | -0.115
24 | CGAGAACA | 0.236
25 | GATATGCC | -0.108

Row | Sequence | PBM E-score
26 | CCGCACCA | -0.0313
27 | CCGTGGTC | -0.121
28 | GGAAGCCA | -0.347
29 | CAGATAGA | -0.0618
30 | CCGAGCAA | 0.161
31 | CCGGGAGA | -0.251
32 | CCCCAGTA | -0.21
33 | GTCTTAAC | -0.2
34 | CAATTTAC | -0.0289
35 | CCGAAACG | 0.288
36 | ATAGGCTC | -0.0784
37 | CCAAGAGC | -0.244
38 | GCCCACGC | -0.0186
39 | ACGGGTGA | 0.0822
40 | CGTCTTCA | 0.036
41 | CATAATTC | -0.0931
42 | AAATGTAC | 0.129
43 | ACGAGTCA | 0.219
44 | AGTGATCC | -0.0289
45 | TAAACTAA | 0.179
46 | CGAAGAAA | 0.194
47 | GATCCACA | -0.13
48 | AAATTCCG | 0.162
49 | TGCCGGAA | 0.0207
50 | GCTGTTTA | 0.0148

Row | Sequence | PBM E-score
51 | ACACTATC | 0.0198
52 | GACGACTA | -0.121
53 | TCACACCA | -0.0594
54 | CCTCTCCA | -0.377
55 | CAGAATGC | -0.288
56 | AGCCGGTC | -0.124
57 | TCAATGAA | 0.0511
58 | AGACATAG | -0.00453
59 | AGCGGCTA | -0.112
60 | ATTGCGCC | -0.0536
61 | CGAACATA | 0.164
62 | CTATGTGA | -0.0746
63 | AGGTTAGC | -0.23
64 | AGAACACA | -0.102
65 | CAGTCAAG | -0.215
66 | TAGACCAA | -0.0485
67 | GCACCTAC | -0.22
68 | GGATCCCA | -0.245
69 | CAGTGATG | 0.0632
70 | AAAAAATC | -0.121
71 | CCGCTGAG | -0.201
72 | GGGGGGAC | -0.239
73 | ACTTGGAC | 0.0207
74 | ACCTTCTC | -0.116
75 | ACCTGCCG | -0.0119

Row | Sequence | PBM E-score
76 | CCTCGTAG | 0.41
77 | GTACTTGA | 0.162
78 | CGCGGCAA | 0.0294
79 | ACTACATG | -0.00827
80 | ATTTCATA | 0.096
81 | GTCAGGCA | -0.248
82 | ACAAAGAG | -0.168
83 | CAGTCGGC | -0.0234
84 | ATCTACGG | 0.0128
85 | CGGATACG | 0.386
86 | AGCTCACT | -0.0849
87 | CCAGCCAA | 0.00593
88 | AGTTCGTG | 0.189
89 | CGTTGCTA | 0.255
90 | CGTGTTGA | 0.0153
91 | CTTAACGA | 0.432
92 | AGCTATCG | 0.0664
93 | CTTGTACC | -0.0121
94 | GCTTTCCC | -0.0311
95 | CGGGTGTA | 0.0956
96 | TACAGCGA | 0.0353
97 | ATTCAATG | 0.0511
98 | AAATGGCT | -0.142
99 | AAGGTTAC | -0.0361
100 | ACTACTAC | 0.0779

Row | Sequence | PBM E-score
101 | ATCGTCTC | -0.0584
102 | TGCATGCA | -0.0613
103 | AGCTCGTA | 0.477
104 | CGTGGCAC | -0.0347
105 | GAATCCTC | 0.0415
106 | CCCAGCTC | -0.143
107 | CAGAGTCC | -0.0964
108 | CCCTAGCC | -0.104
109 | ACGTACAA | 0.298
110 | CTTTAGGC | -0.0762
111 | GCCCGGCA | -0.143
112 | ATGGGAGG | -0.116
113 | CTCAACGA | 0.247
114 | ATGACGCA | 0.104
115 | ACGGGTAC | 0.322
116 | CTATTACC | -0.00657
117 | AAGTAGAG | -0.111
118 | GGGCTGAC | -0.0438
119 | TAAAATGA | 0.0102
120 | CCAGTGGC | -0.265
121 | AAGGTCGG | -0.0761
122 | AATAAGTG | -0.202
123 | AGCTTCTA | -0.0747
124 | CCCACTAA | -0.266
125 | ACACATCT | -0.148

Row | Sequence | PBM E-score
126 | TACCAGAA | -0.0181
127 | AGAAATGA | -0.114
128 | ATGACCCC | -0.184
129 | ACCGACTC | 0.151
130 | CGTTCGAC | 0.144
131 | CCGCCCTC | 0.0333
132 | GCACTAGC | -0.024
133 | GACCAATA | 0.00608
134 | AGTGCCAT | -0.0805
135 | GGCTGCTA | -0.0878
136 | CCGTCGGA | 0.0756
137 | ACCATGCT | 0.0187
138 | CAAGTTTC | -0.0495
139 | CTAGCTGC | -0.221
140 | GACTGACC | -0.0963
141 | ACCCACAA | 0.105
142 | AGAGCAGC | -0.0555
143 | TCCATTCA | -0.0027
144 | CAACTCGG | 0.0345
145 | ATACGTCA | 0.182
146 | AGCGGTCG | -0.0139
147 | AAACTTGC | 0.113
148 | ATGTTCTA | -0.0632
149 | ACCTCCCA | -0.194
150 | AAGGCATT | -0.328

Row | Sequence | PBM E-score
151 | CCTTATTA | 0.0274
152 | CAGGACTC | -0.106
153 | AAAGGTGT | -0.0768
154 | AATTGACT | -0.272
155 | ACCCACTC | -0.107
156 | CCCCAGAG | -0.289
157 | ACCAGCCA | -0.137
158 | ATCGGCCA | -0.0721
159 | CACGTACC | 0.285
160 | CGTGTCAC | 0.0943
161 | GACGACGC | 0.145
162 | CGGGCATC | 0.0286
163 | CGGAAGTA | 0.0282
164 | GATAATAA | -0.0253
165 | CCCCACCG | 0.0384
166 | GATATTGC | -0.0449
167 | AGGTGCCG | -0.0793
168 | GCCGAAGC | -0.111
169 | CCGTAGAG | 0.189
170 | ATGCCCAG | -0.397
171 | CAGTAAGC | -0.0124
172 | CGCTAAAC | 0.294
